Assay results reported in the supplement of paper PMC10126150.
Sequences with one replicate were seen in a single cluster, so their values are uncertain.

tested on: ATP; test: switch fluorescence ratio, 500 uM ATP over buffer (Cy3 cluster intensity, sum of 5 cycles each) (fold (ratio)); higher = stronger signal-on switching upon ATP binding; sequences stand for … in TCGTCGGCAGCGTCAGATGTGTATAAGAGACAGTTTTTTTTTTTTTTTTTTTTTTTTT…TC; settings: aptamer strand: ATP DNA aptamer (quencher-CACCTGGGGGAGTATTGCGGAGGAAGG + anchor), 100 nM annealed; ATP concentration: 500 uM; one replicate
Procedure, shortened: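 Per cluster, summed Cy3 intensity from the target cycles was divided by that from the buffer cycles to give the fluorescence ratio, then averaged per switch-domain sequence. Clusters outside 100-1000 RFU were excluded. The Cy3-labelled switching-strand clusters, on a modified Illumina MiSeq flow-cell, were annealed to 100 nM quencher-labelled ATP aptamer and imaged in selection buffer, then after 15 min with 500 uM ATP at 22 °C, for five cycles with NaOH stripping and re-annealing between them.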
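Also: ATP exposure 15 min at 22 °C before imaging.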

Sequence | switch fluorescence ratio
ACGTGACTGC | 1.25
ACGTGATTAC | 2.24
ACGTGCCTGC | 1.02
ACGTGGACTG | 1.02
ACGTGGAGGC | 1.02
ACGTGGGACG | 0.922
ACGTGGGTGA | 1.03
ACGTGGTCA | 0.992
ACGTGGTTCG | 1
ACGTGTCAAG | 1.01
ACGTGTGTGA | 1.06
ACGTTAATAT | 2.32
ACGTTACATC | 1.39
ACGTTATCGT | 1.07
ACGTTTACTT | 1.17
ACGTTTAGGA | 0.968
ACGTTTCGGT | 0.979
ACGTTTGCCT | 0.924
ACGTTTGGAA | 0.997
ACTAAACCTG | 1.47
ACTAAATGGT | 1.02
ACTAACCTCG | 1.13
ACTAAGAGTG | 0.98
ACTAAGATTA | 1.01
ACTAATACAC | 1.14

Sequence | switch fluorescence ratio
ACTAATGCGT | 1.01
ACTAATGGGG | 0.962
ACTACACTTG | 1.27
ACTACCAGCG | 1.76
ACTACGGTAG | 1.02
ACTACGGTCT | 1.02
ACTACGTATG | 1.01
ACTAGACTTA | 1.09
ACTAGATCGC | 1.02
ACTAGATGTC | 0.983
ACTAGCAAAG | 1.04
ACTAGGGCAA | 0.982
ACTAGGGGAG | 0.996
ACTAGGGTTC | 1.04
ACTATAATCT | 1.07
ACTATACTGA | 1.31
ACTATAGGGA | 1.03
ACTATAGTAC | 1.04
ACTATGGCGT | 0.996
ACTATGTATT | 0.991
ACTATTACAA | 1.13
ACTATTAGTG | 0.984
ACTATTGTCT | 0.966
ACTCAATATG | 1.06
ACTCATAAAG | 0.947

Sequence | switch fluorescence ratio
ACTCATCTAT | 1.02
ACTCATTCTT | 1.03
ACTCCCCATC | 2.57
ACTCCCGGTG | 4.15
ACTCCCTAAA | 1.27
ACTCCGCGGG | 4.77
ACTCCGTATG | 2.35
ACTCGCCGG | 1.11
ACTCGCGCCA | 1.6
ACTCGGCATC | 2.62
ACTCGGGC | 1.02
ACTCGGTGCG | 1.05
ACTCGTGCCA | 0.992
ACTCTGATAT | 1.16
ACTCTGGCCT | 1.13
ACTCTTTGGG | 1.03
ACTGAACCTG | 1.17
ACTGAGCCGA | 1.06
ACTGATACTA | 1.08
ACTGCATAG | 0.978
ACTGCATGA | 1.07
ACTGGAATTG | 1.06
ACTGGAGTGT | 0.984
ACTGGAGTTG | 1
ACTGGATAGA | 1.06

Sequence | switch fluorescence ratio
ACTGGCACGC | 1.13
ACTGGCAGCC | 0.992
ACTGGCCTGT | 1.01
ACTGGGAATG | 0.995
ACTGGGCAAG | 1.05
ACTGGGCGGC | 0.962
ACTGGGCGGT | 1.01
ACTGGTCTTA | 1.03
ACTGGTGAGT | 0.989
ACTGTATAAT | 1.19
ACTGTCGCAA | 1.12
ACTGTCGTAG | 1.03
ACTGTGAGGA | 0.999
ACTGTTACTT | 1.22
ACTGTTGGT | 0.979
ACTTAAGCTT | 1.1
ACTTACCTAT | 1.17
ACTTAGAATG | 1.08
ACTTAGCTCT | 1.01
ACTTATCGCG | 1.02
ACTTATGTTT | 1.02
ACTTCAGGTC | 1.02
ACTTCCGTAA | 1.54
ACTTCGCTGA | 2.63
ACTTCTCACG | 1.14

Sequence | switch fluorescence ratio
ACTTCTGAGT | 1
ACTTGCCGTG | 1.05
ACTTGGATTG | 1.02
ACTTGGCGCA | 1.04
ACTTGGGAAC | 1.03
ACTTGTCAAT | 1.06
ACTTTAAAGC | 1.09
ACTTTCTACG | 2.04
ACTTTGAACT | 0.985
ACTTTGAGAG | 0.957
ACTTTTGGAT | 1.01
AGAAAACTTA | 1.05
AGAAAAGGTC | 1.09
AGAAAGCTGG | 1.02
AGAAATACTA | 1.15
AGAACGCATG | 1.02
AGAACGTCGA | 0.995
AGAACGTTCA | 1.03
AGAACGTTTC | 0.985
AGAACTTGCA | 0.973
AGAAGATAGA | 1.03
AGAAGATCCG | 0.943
AGAAGCAGGC | 0.782
AGAAGCTTAG | 0.981
AGAAGGCTTT | 0.987

Sequence | switch fluorescence ratio
AGAAGTGCAG | 1.01
AGAATAAACG | 1.03
AGAATACATC | 1.04
AGAATCCGAT | 1.01
AGAATGTCTA | 0.978
AGAATTAAAT | 0.966
AGAATTTTGG | 0.969
AGACAAGTT | 1.01
AGACAATGTC | 1.02
AGACACGATC | 1.07
AGACAGAGTT | 0.986
AGACAGCTTC | 1.02
AGACAGGCGT | 0.944
AGACCCCAGG | 1.07
AGACCGACCC | 2.3
AGACCTACGC | 1.59
AGACCTCGCT | 1.06
AGACCTGAGG | 1.02
AGACCTTAG | 1.03
AGACGACATA | 1.1
AGACGAGGCG | 0.913
AGACGATGTC | 0.986
AGACGCCATA | 1.08
AGACGGATAC | 1.15
AGACGGTAAC | 1.14

Sequence | switch fluorescence ratio
AGACTCATAC | 1.28
AGACTGACGG | 0.975
AGACTTATGT | 0.974
AGACTTCCCT | 1.15
AGAGAAAAAT | 0.986
AGAGAAATTA | 0.984
AGAGAAGCAC | 1.1
AGAGACGACC | 1.09
AGAGACTCGT | 1.02
AGAGAGGGCT | 0.992
AGAGATCAG | 0.97
AGAGATCGTT | 1.06
AGAGATGGTG | 1.04
AGAGCATAAA | 1.06
AGAGCGTCCT | 1.03
AGAGCTTCT | 1.04
AGAGCTTCTG | 1.01
AGAGGATAGT | 1.03
AGAGGCGCG | 1.07
AGAGGCTGCG | 0.964
AGAGGGCA | 1.02
AGAGGGCCGA | 1
AGAGGGGGT | 0.974
AGAGGTGGTT | 1.01
AGAGTAGTTC | 1.01

Sequence | switch fluorescence ratio
AGAGTCACTT | 0.992
AGAGTCCGCG | 1.19
AGAGTGGCTT | 0.941
AGAGTTTGCG | 1.08
AGATAAAGAG | 0.959
AGATACTCGC | 1.35
AGATAGGTTT | 0.996
AGATATTGCT | 0.997
AGATCGATT | 1.02
AGATCGCGAA | 1.09
AGATCGTCAT | 0.966
AGATCTTTAT | 0.995
AGATGAATAA | 0.994
AGATGCATAA | 0.98
AGATGCATCT | 0.973
AGATGGATCT | 1.01
AGATGTTCGA | 0.968
AGATTAGGCT | 0.94
AGATTATTCA | 0.991
AGATTCGGTG | 0.987
AGATTGACCT | 1.28
AGATTGACGG | 1.03
AGATTGAGTG | 0.982
AGATTGGCGA | 1
AGCAAGGTTT | 1.05
